Reference: patent publication US20210163599A1 (AVACTA LIFE SCIENCES, published 2021)

Target: T1, huPD-L1-Fc (R&D Systems) (human, UniProt Q9NZQ7 part only)
T1 construct: Bought from R&D Systems; also called hPDL1-Fc; human PD-L1 Fc antigen
Assay: Biacore, bispecific immobilised on CM5, rhPD-L1-Fc as analyte (binding via AVA04-251)

T1 sequence (Q9NZQ7 19-239 limits assumed): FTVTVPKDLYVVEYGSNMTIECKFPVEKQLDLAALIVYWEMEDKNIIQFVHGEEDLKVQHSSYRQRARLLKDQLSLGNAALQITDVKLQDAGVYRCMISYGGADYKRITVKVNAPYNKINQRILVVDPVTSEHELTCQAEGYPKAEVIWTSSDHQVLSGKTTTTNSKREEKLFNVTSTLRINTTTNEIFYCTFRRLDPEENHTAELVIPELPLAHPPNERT

Kd [pM]	Binder
313	Bevacizumab-AVA04-251 bispecific antibody, flexible (G4S)3 linker (bispecific antibody, human IgG1, kappa) heavy: EVQLVESGGGLVQPGGSLRLSCAASGYTFTNYGMNWVRQAPGKGLEWVGWINTYTGEPTYAADFKRRFTFSLDTSKSTAYLQMNSLRAEDTAVYYCAKYPHYYGSSHWYFDVWGQGTLVTVSSASTKGPSVFPLAPSSKSTSGGTAALGCLVKDYFPEPVTVSWNSGALTSGVHTFPAVLQSSGLYSLSSVVTVPSSSLGTQTYICNVNHKPSNTKVDKKV[human IgG1 Fc skipped]GGGSGGGGSGGGGSIPRGLSEAKPATPEIQEIVDKVKPQLEEKTGETYGKLEAVQYKTQVLAREGRQDWVLSTNYYIKVRAGDNKYMHLKVFNGPWVPFPHQQLADRVLTGYQVDKNKDDELTGF light: DIQMTQSPSSLSASVGDRVTITCSASQDISNYLNWYQQKPGKAPKVLIYFTSSLHSGVPSRFSGSGSGTDFTLTISSLQPEDFATYYCQQYSTVPWTFGQGTKVEIKRTVAAPSVFIFPPSDEQLKSGTASVVCLLNNFYPREAKVQWKVDNALQSGNSQESVTEQDSKDSTYSLSSTLTLSKADYEKHKVYACEVTHQGLSSPVTKSFNRGEC
538	Bevacizumab-AVA04-251 bispecific antibody, rigid A(EAAAK)3 linker (bispecific antibody, human IgG1, kappa) heavy: EVQLVESGGGLVQPGGSLRLSCAASGYTFTNYGMNWVRQAPGKGLEWVGWINTYTGEPTYAADFKRRFTFSLDTSKSTAYLQMNSLRAEDTAVYYCAKYPHYYGSSHWYFDVWGQGTLVTVSS[human IgG1 constant region skipped]AEAAAKEAAAKEAAAKIPRGLSEAKPATPEIQEIVDKVKPQLEEKTGETYGKLEAVQYKTQVLAREGRQDWVLSTNYYIKVRAGDNKYMHLKVFNGPWVPFPHQQLADRVLTGYQVDKNKDDELTGF light: DIQMTQSPSSLSASVGDRVTITCSASQDISNYLNWYQQKPGKAPKVLIYFTSSLHSGVPSRFSGSGSGTDFTLTISSLQPEDFATYYCQQYSTVPWTFGQGTKVEIKRTVAAPSVFIFPPSDEQLKSGTASVVCLLNNFYPREAKVQWKVDNALQSGNSQESVTEQDSKDSTYSLSSTLTLSKADYEKHKVYACEVTHQGLSSPVTKSFNRGEC
